From PubChem BioAssay AID1159614 (National Center for Advancing Translational Sciences (NCATS), 2016)
Out of some 45,000 compounds screened, about 65 (0.1%) were called active. Calls come from the whole dose curve; as a rule, active = well fitted activation curve with a large enough effect; inconclusive = small, poorly fitted or top-dose-only effect; inactive = no such curve, though single readings can be large or run the other way. This is one part of the list.

target: Galactocerebrosidase (Homo sapiens) (UniProt P54803); assay: A Novel Cell-Based Assay to Identify Small Molecules for B -Galactocerebrosidase; details: 145M-Twi-hGALC-G270D cells (Twitcher mouse brain line with human GALC G270D), HMU-beta-Gal fluorescence, 48 h; series mostly up to 57.5 µM; activation: at the top concentration; note: 0% is about no effect; nearly all actives have a fitted effect of over 65% in size
How it was run: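 Fluorescence readout: HMU-β-gal cleavage by mutant GALC (0.1 mM final, citrate/phosphate pH 5.2 with 1 mg/mL taurocholate), stopped with carbonate/bicarbonate plus Triton X-100. Cells: murine Twitcher 145M-Twi expressing human G270D GALC; qHTS for activators.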

UniProt P54803, sequence (P54803 whole entry, looked up): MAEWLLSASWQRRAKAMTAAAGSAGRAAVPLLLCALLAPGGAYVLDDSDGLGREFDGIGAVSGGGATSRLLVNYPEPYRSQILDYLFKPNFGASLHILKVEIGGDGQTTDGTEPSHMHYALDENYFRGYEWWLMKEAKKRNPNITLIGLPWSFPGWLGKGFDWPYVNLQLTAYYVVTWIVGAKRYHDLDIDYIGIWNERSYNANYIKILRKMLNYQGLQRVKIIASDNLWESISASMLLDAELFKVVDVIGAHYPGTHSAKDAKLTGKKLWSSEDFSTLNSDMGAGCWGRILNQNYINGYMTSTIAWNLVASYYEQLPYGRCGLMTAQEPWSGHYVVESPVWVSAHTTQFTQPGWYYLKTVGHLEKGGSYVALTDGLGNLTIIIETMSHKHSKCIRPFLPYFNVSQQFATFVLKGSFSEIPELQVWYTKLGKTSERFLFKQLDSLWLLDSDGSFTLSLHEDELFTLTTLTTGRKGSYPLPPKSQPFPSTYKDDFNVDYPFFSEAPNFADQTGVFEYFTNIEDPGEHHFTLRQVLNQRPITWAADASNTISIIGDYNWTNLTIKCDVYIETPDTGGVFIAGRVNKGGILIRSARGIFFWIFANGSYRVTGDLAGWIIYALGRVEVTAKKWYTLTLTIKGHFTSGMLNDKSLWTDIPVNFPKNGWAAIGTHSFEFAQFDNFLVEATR

activation, inactive:
Cc1cc(C(=O)Nc2c(C)nc3ccccn3c2=O)ccc1[N+](=O)[O-] -13.7%
CCOc1ccc(/C=C/c2nc(C#N)c(NCCc3ccccc3)o2)cc1 3.81%
O=C(CSc1nc2c([nH]c3ccccc32)c(=O)n1-c1ccc(Cl)cc1)NCC1CCCO1 (stereo unspecified) 2.37%
Cc1ccc(-n2c(SCC(N)=O)nc3c(oc4ccccc43)c2=O)cc1C -11.3%
CCOc1cc(CNC(=O)Cn2c(-c3cccs3)cc3cc(F)ccc32)ccc1OC -5.66%
O=C(Cn1c(=O)oc2cc(S(=O)(=O)NCc3ccccc3)ccc21)NCc1ccc(Cl)cc1 -5.21%
COc1cccc(C(=O)Nc2ccccc2-c2nnc(-c3cccc(OC)c3)o2)c1 -20.1%
CC(=O)Nc1ccc(S(=O)(=O)NC2(C(F)(F)F)NC(=O)N(CCc3ccc(F)cc3)C2=O)cc1 (stereo unspecified) -20.5%
Cc1cccc(NS(=O)(=O)c2ccc3c(c2)CCN3C(=O)C2CCC2)c1 -9.58%
COC(=O)C1CCN(S(=O)(=O)c2cc3c4c(c2)CC(=O)N4CCC3)CC1 -23.6%
CCN(C)C(=O)Oc1cccc([C@H](C)N(C)C)c1 -2.39%
O=C(c1cccs1)N1CCCc2cc(NS(=O)(=O)c3ccc(F)cc3F)ccc21 -19%
CCCN(CCC)CCCNC(=O)Cn1cnc2sc(C)c(S(=O)(=O)N3CCC(C)CC3)c2c1=O -16%
O=C(Nc1cccc(F)c1)c1ccc(-c2ccccc2)s1 -7.86%
Cc1ccc(C)c(N2CCN(Cc3csc(C)c3)CC2)c1 -0.38%
Cc1ccc(C)c(NC(=O)Cn2c(=O)n(Cc3ccccc3)c(=O)c3oc4ccccc4c32)c1 -16.9%
Nc1ccc(S(=O)(=O)Nc2ccnn2-c2ccccc2)cc1 -4.46% [at 23.8 µM]
CCOCCCn1c(=N)c(C(=O)NCC2CCCO2)cc2c(=O)n3cccc(C)c3nc21 (stereo unspecified) -17.5%
COC(=O)C1=C(c2ccccc2)c2ccccc2S(=O)(=O)N1CC(=O)Nc1ccccc1Cl -1.15%
Cc1ccc(CN2C(=O)c3ccccc3Sc3ccc(C(=O)OCc4ccco4)cc32)cc1 -15.1%
COc1ccc(Br)cc1CNC(=O)c1ccc2c(c1)N(Cc1ccc(C)cc1)CCS2 -12.3%
Cc1ccc(S(=O)(=O)c2cn(Cc3ccccc3Cl)c3ccc(F)cc3c2=O)cc1 12.2%
COc1ccc2c(c1)NC(c1cccnc1)=NC(c1ccc(F)cc1)=N2 -21.4%
COc1ccccc1-c1noc(-c2ccc(NC(C)C)c([N+](=O)[O-])c2)n1 11.2%
COc1ccc(Cn2c(=O)[nH]c3cc(C(=O)N4CCN(c5cc(Cl)ccc5C)CC4)ccc3c2=O)cc1 -2.03%
O=C(CCCCn1c(=O)c2ccccc2n(CC(=O)Nc2cccc(F)c2)c1=O)NCCc1ccccc1 -16.5%
